The target in experiment [1] is T1, OTUD1 C320A (co-IP assays of Figure 6E-G; tag not given) (UniProt Q5VV17).
T1 sequence: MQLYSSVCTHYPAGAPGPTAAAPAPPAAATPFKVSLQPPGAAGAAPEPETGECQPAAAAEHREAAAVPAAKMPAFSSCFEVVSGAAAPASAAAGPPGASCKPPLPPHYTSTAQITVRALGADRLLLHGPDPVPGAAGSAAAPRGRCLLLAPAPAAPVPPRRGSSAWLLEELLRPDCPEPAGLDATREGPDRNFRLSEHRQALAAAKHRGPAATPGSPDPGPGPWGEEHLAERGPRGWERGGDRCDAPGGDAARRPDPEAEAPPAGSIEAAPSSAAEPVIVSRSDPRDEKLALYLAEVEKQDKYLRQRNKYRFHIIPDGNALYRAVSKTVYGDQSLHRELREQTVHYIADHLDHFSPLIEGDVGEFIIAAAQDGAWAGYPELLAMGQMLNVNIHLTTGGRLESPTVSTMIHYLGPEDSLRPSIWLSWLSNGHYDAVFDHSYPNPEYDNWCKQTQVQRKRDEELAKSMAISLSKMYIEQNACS
The experiment can be described thus: co-IP; in vivo co-IP of OTUD1 (wild type or C320A) with CUL4A, DDB1 and DCAF10 (Figure 6E-G); cells, tags and baits not given.

Chains of the proteins cited; added tags and fusions are not shown. Lines headed by an entry give the natural chain unless they say otherwise; changes in a name come on top. A line that says so, or that is headed by a name, gives the form on record, which may keep a tag or linker. Residues count along the entry.
endogenous apoptosis-inducing factor (AIF), wild type (human (endogenous in 293T and ESCC cell lines)) (O95831, residues 102-613): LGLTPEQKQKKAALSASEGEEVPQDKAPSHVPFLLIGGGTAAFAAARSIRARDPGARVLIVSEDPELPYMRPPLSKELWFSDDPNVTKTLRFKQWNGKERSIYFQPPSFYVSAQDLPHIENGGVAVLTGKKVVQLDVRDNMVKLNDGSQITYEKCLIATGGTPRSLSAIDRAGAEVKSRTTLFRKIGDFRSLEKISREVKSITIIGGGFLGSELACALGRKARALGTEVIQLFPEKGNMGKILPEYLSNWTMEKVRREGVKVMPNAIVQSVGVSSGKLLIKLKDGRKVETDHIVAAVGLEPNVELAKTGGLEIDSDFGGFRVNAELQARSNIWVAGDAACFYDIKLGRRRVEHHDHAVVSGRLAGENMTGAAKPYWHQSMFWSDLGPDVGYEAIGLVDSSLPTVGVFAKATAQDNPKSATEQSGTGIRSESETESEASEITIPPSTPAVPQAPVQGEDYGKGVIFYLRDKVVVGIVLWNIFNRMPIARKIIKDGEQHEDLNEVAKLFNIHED
endogenous AIF K244R (CRISPR knock-in, KYSE150) (human (endogenous in KYSE150)) (O95831, form named): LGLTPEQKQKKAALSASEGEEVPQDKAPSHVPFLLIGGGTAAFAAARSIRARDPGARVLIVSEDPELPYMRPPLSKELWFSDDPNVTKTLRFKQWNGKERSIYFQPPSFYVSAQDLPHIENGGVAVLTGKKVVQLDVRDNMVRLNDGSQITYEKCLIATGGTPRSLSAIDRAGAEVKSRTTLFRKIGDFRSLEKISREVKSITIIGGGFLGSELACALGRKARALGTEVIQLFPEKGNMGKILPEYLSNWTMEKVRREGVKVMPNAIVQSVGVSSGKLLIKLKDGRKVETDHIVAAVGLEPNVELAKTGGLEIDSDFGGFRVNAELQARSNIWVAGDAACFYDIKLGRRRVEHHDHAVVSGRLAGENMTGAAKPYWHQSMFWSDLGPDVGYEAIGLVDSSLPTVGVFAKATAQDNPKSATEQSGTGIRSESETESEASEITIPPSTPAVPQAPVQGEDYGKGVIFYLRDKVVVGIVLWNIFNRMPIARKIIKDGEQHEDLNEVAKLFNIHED
endogenous AIF K255R (CRISPR knock-in, KYSE150) (human (endogenous in KYSE150)) (O95831, form named): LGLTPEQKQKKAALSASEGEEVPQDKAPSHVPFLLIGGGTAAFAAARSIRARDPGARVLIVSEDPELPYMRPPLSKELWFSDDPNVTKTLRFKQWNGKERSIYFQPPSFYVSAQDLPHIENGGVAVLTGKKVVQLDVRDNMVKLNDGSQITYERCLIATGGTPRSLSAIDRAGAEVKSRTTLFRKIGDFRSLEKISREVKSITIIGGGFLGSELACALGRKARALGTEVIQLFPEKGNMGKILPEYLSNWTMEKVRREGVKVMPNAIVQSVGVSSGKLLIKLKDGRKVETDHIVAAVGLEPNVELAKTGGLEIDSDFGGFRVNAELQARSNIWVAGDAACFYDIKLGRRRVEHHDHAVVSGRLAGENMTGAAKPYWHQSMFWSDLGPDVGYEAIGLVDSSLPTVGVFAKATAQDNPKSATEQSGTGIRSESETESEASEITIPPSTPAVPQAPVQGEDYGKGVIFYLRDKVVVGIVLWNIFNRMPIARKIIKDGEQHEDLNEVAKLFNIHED
UniProt Q16531: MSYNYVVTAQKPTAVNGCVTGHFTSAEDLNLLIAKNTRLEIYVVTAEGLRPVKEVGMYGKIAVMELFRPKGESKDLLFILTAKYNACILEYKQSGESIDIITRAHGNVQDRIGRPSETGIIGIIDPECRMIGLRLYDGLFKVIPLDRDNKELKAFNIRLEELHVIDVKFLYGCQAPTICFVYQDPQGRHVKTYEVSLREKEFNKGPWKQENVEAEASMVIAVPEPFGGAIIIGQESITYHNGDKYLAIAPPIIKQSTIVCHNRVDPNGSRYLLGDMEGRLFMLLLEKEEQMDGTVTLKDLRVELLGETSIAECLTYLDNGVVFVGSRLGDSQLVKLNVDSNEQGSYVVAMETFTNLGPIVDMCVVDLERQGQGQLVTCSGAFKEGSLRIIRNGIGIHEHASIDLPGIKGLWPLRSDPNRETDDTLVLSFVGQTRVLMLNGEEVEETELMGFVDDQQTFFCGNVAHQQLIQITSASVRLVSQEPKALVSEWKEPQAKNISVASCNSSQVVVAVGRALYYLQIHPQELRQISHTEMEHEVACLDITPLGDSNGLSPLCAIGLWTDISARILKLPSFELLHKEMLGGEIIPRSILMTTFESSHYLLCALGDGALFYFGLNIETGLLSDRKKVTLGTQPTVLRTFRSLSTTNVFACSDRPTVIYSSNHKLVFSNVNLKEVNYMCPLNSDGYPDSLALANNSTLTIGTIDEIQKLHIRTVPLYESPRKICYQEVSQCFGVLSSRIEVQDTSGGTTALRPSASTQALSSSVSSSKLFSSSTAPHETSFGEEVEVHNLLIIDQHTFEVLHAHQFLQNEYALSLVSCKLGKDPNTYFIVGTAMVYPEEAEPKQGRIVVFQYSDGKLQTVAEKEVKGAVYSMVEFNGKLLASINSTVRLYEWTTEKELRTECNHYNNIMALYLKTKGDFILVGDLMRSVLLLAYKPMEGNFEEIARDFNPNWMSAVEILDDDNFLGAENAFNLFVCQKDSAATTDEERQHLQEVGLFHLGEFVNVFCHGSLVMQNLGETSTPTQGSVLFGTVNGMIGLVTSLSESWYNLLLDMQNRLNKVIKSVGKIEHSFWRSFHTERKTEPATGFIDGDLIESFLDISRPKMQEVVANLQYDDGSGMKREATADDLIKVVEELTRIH
UniProt Q13619: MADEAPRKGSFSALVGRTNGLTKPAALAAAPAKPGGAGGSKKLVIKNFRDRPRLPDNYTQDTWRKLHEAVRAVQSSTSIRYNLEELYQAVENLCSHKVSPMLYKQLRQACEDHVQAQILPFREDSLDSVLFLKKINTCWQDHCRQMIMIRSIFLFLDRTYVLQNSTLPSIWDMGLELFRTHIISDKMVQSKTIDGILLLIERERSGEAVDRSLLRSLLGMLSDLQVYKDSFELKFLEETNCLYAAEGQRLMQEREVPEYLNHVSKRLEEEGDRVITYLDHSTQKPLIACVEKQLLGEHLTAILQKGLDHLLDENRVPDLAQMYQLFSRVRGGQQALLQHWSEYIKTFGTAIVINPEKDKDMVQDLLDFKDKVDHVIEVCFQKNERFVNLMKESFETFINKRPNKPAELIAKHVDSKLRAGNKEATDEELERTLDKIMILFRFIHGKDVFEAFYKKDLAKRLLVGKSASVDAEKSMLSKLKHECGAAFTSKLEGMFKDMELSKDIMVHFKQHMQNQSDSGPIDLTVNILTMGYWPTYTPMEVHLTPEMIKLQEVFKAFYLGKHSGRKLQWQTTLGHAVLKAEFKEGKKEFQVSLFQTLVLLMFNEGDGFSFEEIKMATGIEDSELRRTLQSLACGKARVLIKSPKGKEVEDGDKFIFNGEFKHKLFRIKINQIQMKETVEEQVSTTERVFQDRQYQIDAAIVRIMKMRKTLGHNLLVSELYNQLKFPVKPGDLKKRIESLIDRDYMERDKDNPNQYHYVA

The next experiment has as its target T2, V5-tagged OTUD1 (UniProt Q5VV17).
T2 sequence: T1 sequence with A320C
Kind of experiment: co-IP; in vitro co-IP of V5-OTUD1 with GST-DDB1, GST-CUL4A or GST-DCAF10; GST proteins purified from E. coli, preparation of V5-OTUD1 not told.

The target of experiment [2] is T3, wild-type OTUD1 (co-IP assays of Figures 6E-G, S3D, S7; tag not given) (UniProt Q5VV17).
T3 sequence: T1 sequence with A320C
Kind of experiment: co-IP; in vivo co-IP of OTUD1 (wild type or C320A) with CUL4A, DDB1 and DCAF10 (Figure 6E-G); cells, tags and baits not given.

Experiment [3] concerns the target endogenous AIF K244R (CRISPR knock-in, KYSE150) (human (endogenous in KYSE150)) (UniProt O95831). Kind of experiment: co-IP; endogenous proteins in ESCC cell lysates (two ESCC cell lines; KYSE150 with endogenous wild-type, K244R or K255R AIF, with or without OTUD1 depletion); anti-AIF antibody with protein A/G magnetic beads, overnight at 4 °C; immunoblot. (In general: In western blotting, separated proteins are transferred to a membrane and probed.)

Experiment [4] deals with endogenous apoptosis-inducing factor (AIF), wild type (human (endogenous in 293T and ESCC cell lines)) (UniProt O95831). Described as above.
Experiment [5] concerns the target endogenous AIF K255R (CRISPR knock-in, KYSE150) (human (endogenous in KYSE150)) (UniProt O95831). Described as above.

Where a chain is given by its changes, count along the chain named. No constants are given. Whether binding was seen depends on the method and setting. Binding seen in cells or lysates may run through a third protein. Some entries that bind do so weakly or less than the wild type. For part of these data: Where a sequence is shown, tags or fusion partners need not be part of it.

Turning to “DDB1 (co-IP of Figure 6E-G) (from UniProt Q16531 1-1140)”, in experiment [1], the binding entry is reported as “no binding”.

On to “cullin 4A (CUL4A) (co-IP of Figure 6E-G) (from UniProt Q13619 1-759)”, for which the binding result in experiment [1] was “no binding”.

Consider “GST-tagged CUL4A (from UniProt Q13619 1-759)”, for which the binding entry in the experiment with V5-tagged OTUD1 is given as “no binding”.

As to “GST-tagged DDB1 (from UniProt Q16531 1-1140)”, the binding entry with V5-tagged OTUD1 is “no binding”.

B1: DCAF10 (co-IPs of Figure 6E-G and Figure S7; tag not told in the text) (protein, UniProt Q5QP82 1-559)
chain: MFPFGPHSPGGDGSAGAGAEEPTPHEGQAAATGPPSPLHPGADATHPPPPARSPRRPGAPSLSPAPRSGELGLPGAPESSTASAPGEPSPPSPPCRRPGPDCRAKSRGRHGLGAGLGGPGARLFGWLKERSLGRGLFVDPARDNFRTMTSLYGSIHPADSVYLSTRTHGAVFNLEYSPDGSVLTVACEQTEVLLFDPISSKHIKTLSEAHEDCVNNIRFLDNRLFATCSDDTTIALWDLRKLNTKVCTLHGHTSWVKNIEYDTNTRLLVTSGFDGNVIIWDTNRYTEDGCPHKKFFHTRFLMRMRLTPDCSKMLISTSSGYLLILHDLDLTKSLEVGSYPILRARRTTSSSDLTTSSSSSGPRVSGSPCHHSDSNSSEKHMSRASQREGVSPRNSLEVVTPEVLGESDHGNCITSLQLHPKGWATLLRCSSNSDDEECTCVYEFQEGAPVRPVSPRCSLRLTHYIEEANVGRGYIKELCFSPDGRMISSPHGYGIRLLGFDKQCSELVDCLPKEASPLRVIRSLYSHNDVVLTTKFSPTHCQIASGCLSGRVSLYQPKF
On to B1, for which the binding result in experiment [2] was “binds”; in experiment [1], “no binding”.

B2: GST-tagged DCAF10 (protein, UniProt Q5QP82 1-559)
chain: B1 chain
As for B2, the binding result with V5-tagged OTUD1 is on record as “binds”.

B3: macrophage migration inhibitory factor (MIF) (protein, UniProt P14174 1-115)
chain: MPMFIVNTNVPRASVPDGFLSELTQQLAQATGKPPQYIAVHVVPDQLMAFGGSSEPCALCSLHSIGKIGGAQNRSYSKLLCGLLAERLRISPDRVYINYYDMNAANVGWNNSTFA
In the case of B3, the binding entry in experiment [3], in experiment [4] and in experiment [5] was “binds” each time.

B4: coiled-coil-helix-coiled-coil-helix domain 4 (CHCHD4) (protein, UniProt Q8N4Q1 1-142)
chain: MSYCRQEGKDRIIFVTKEDHETPSSAELVADDPNDPYEEHGLILPNGNINWNCPCLGGMASGPCGEQFKSAFSCFHYSTEEIKGSDCVDQFRAMQECMQKYPDLYPQEDEDEEEEREKKPAEQAEETAPIEATATKEEEGSS
Turning to B4, the binding result in experiment [4] and in experiment [5] was “binds” throughout.

Values taken from publication PMC8061361.
